Assay results taken from PubChem BioAssay AID624417 (National Center for Advancing Translational Sciences (NCATS), 2012).
Among all 410,000 compounds or so, about 6,400 (1.6%) were called active. This list was built around the results that the source calls inconclusive (neither active nor inactive); the mix of calls is not that of the screen. Calls come from the whole dose curve; as a rule, active = well fitted inhibition curve with a large enough effect; inconclusive = small, poorly fitted or top-dose-only effect; inactive = no such curve, though single readings can be large or run the other way. No potency is given beside an inconclusive call; the fits are too rough.

What follows are compounds tested against Glucagon-like peptide 1 receptor (Homo sapiens) (UniProt P43220) (assay: qHTS of GLP-1 Receptor Inverse Agonists (Inhibition Mode)). Conditions: HEK293 GLP-1R CRE-luciferase, luminescence, 24 h, GLP-1R form is constitutively active; activity change, negative = inhibition: at 38.3 µM (top of the series) unless noted.
Method in brief: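 Using stably transfected HEK293 (constitutively active GLP-1R, cAMP-luciferase reporter), compounds were incubated 24 hr and luciferase measured by luminescence.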
% is set by controls: 0 for no effect and ±100 for the full control effect; potency is the fitted concentration of half-maximal effect; tags give direction and shape of the fitted curve.
Note: nearly all actives have a fitted effect of over 55% in size.

Sequence of UniProt P43220 (P43220 whole entry, looked up): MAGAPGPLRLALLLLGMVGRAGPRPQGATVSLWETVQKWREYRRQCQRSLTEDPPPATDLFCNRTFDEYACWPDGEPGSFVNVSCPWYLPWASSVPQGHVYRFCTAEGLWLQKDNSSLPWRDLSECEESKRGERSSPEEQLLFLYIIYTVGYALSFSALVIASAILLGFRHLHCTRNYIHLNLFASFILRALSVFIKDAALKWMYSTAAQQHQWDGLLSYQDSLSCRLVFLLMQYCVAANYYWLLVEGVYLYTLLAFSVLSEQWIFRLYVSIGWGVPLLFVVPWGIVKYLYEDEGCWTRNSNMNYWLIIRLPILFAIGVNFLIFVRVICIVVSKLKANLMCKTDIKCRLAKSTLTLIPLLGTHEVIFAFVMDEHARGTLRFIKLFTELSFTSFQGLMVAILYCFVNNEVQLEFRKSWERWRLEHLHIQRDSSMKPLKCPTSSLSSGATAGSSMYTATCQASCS

SMILES | Potency | activity change, negative = inhibition
O=C(/C=C/c1ccc(Cl)cc1)NC1CC2CCC1C2 (centres undefined) | inconclusive [inhibitor, single point] | 
Cc1ccc(C)c(N2CCN(C(=O)C(Cc3ccccc3)n3cccc3)CC2)c1 (centres undefined) | inconclusive [inhibitor, single point] | 
COc1ccc(CCNC(=O)c2cc3sc(Cl)cc3n2C)cc1OC | inconclusive [inhibitor, single point] | 
COC(=O)c1cccc(Nc2c(-c3ccc(OC)cc3)nc3nc[nH]n23)c1 |  | inactive: 62.3%
Cc1nc(SCC(=O)NC(C)(C)C)c2c(-c3cccs3)csc2n1 | inconclusive [inhibitor, partial curve, poor fit] | 
Cc1nnc(NCc2ccccc2)c2ccccc12 |  | inactive: -13.3%
C=CC[C@H](CC(=O)N(CCO)Cc1ccccc1)C(=O)N[C@@H](C)COC(=O)[C@H](CC=C)CC(=O)OC(C)(C)C | inconclusive [inhibitor, partial curve, poor fit] | 
COc1cc(/C=C2\SC(=S)N(Nc3ccccc3)C2=O)ccc1O | inconclusive [inhibitor, single point] | 
COc1ccc(OC)c(Nc2nc(-c3sc(NC(=O)CC(C)C)nc3C)cs2)c1 |  | inactive: 11.5%
O=C(Nc1ccc2c(c1)C(=O)N(CC1CCCO1)C2=O)c1ccccc1Br (centres undefined) |  | inactive: 0%
Cc1c(Cl)ccc2c1NC(=O)[C@]21[C@@H]2C(=O)N(Cc3ccccc3)C(=O)[C@@H]2[C@@H]2CCCN21 | inconclusive [inhibitor, single point] | 
COc1ccc(NC(=O)C2(C)Cc3c(-c4cccc(C(N)=O)c4)ccnc3O2)cn1 (centres undefined) | inconclusive [inhibitor, partial curve] | 
Cc1ccnc(NC(=O)c2cccc(S(=O)(=O)N3CCCc4ccccc43)c2)c1 | inconclusive [inhibitor, partial curve, poor fit] | 
CCc1ccc(S(=O)(=O)c2cnc3ccc(OC)cc3c2N2CCCC(C)C2)cc1 (centres undefined) | inconclusive [inhibitor, single point] | 
COc1cc(OC)c2c(C)c(CC(=O)NCCc3ccccc3OC)c(=O)oc2c1 |  | inactive: 12.1%
CCOC(=O)c1c(CN2CCN(c3ccccc3)CC2)oc2ccc(O)cc12 | inconclusive [inhibitor, partial curve, poor fit] | 
Cc1ccc(NC(=O)CN(C)CC(=O)Nc2ccc(F)c(Cl)c2)cc1 | inconclusive [inhibitor, partial curve, poor fit] | 
Cc1ccccc1N1CC(C(=O)Nc2ccc(S(=O)(=O)N3CCCCC3)cc2)CC1=O (centres undefined) | inconclusive [inhibitor, single point] | 
Cc1ccc(C(C)C)c(OCCCNCc2cccnc2)c1 | inconclusive [inhibitor, partial curve, poor fit] | 
CC(=O)c1cc(-c2ccccc2)n(CCC(=O)NC2CCCCCCC2)c1C | inconclusive [inhibitor, partial curve, poor fit] | 
Nc1cc(S(=O)(=O)Nc2ccccc2Cl)ccc1N1CCOCC1 |  | inactive: 11.5%
O=C1c2cccc3cccc(c23)C(=O)N1CC1CCN(CC(O)COc2ccc3ccccc3c2)CC1 (centres undefined) | inconclusive [inhibitor, partial curve, poor fit] | 

SMILES | Potency | activity change, negative = inhibition
Cc1ccc(Cl)cc1-n1ncc2c(NC3CCCCC3)ncnc21 | inconclusive [inhibitor, single point] | 
O=C(OCC(=O)N1CCOCC1)c1cc(-c2ccccc2)nc2ccccc12 | inconclusive [inhibitor, partial curve, poor fit] | 
COC(=O)c1oc2ccc(OC)cc2c1N |  | inactive: 47.9%
Cc1nc(Oc2cccc(Cl)c2)c2oc3ccccc3c2n1 | inconclusive [inhibitor, single point] | 
Cc1cccc2sc(N3CCN(C(=O)CS(=O)(=O)c4ccc(F)cc4)CC3)nc12 | inconclusive [inhibitor, partial curve] | 
CN(C)c1ccc(/C=C/c2ccc3ccccc3n2)cc1 |  | inactive: -74.5%
O=C1NNC(c2ccccc2)=N/C1=C\c1ccccc1Cl | inconclusive [inhibitor, single point] | 
O=C(NOCc1ccccc1)OCc1ccccc1 |  | inactive: -17%
O=C(Nc1ccnn1C1CCN(Cc2ccccc2OC(F)F)CC1)c1cccc(F)c1 | inconclusive [inhibitor, partial curve, poor fit] | 
CC(=O)c1c(-c2ccccc2)c2cc(Cl)ccc2n(C)c1=O | inconclusive [inhibitor, partial curve, poor fit] | 
COc1ccc(OC)c(-n2nnnc2SCC(=O)Nc2ccc(C(=O)N3CCCCC3)cc2)c1 |  | inactive: 0%
CCOC(=O)Cn1c2ccccc2c2nc(C)sc21 | inconclusive [inhibitor, single point] | 
COc1cccc(C(=O)NCCC2=CCCCC2)c1OC | inconclusive [inhibitor, single point] | 
NS(=O)(=O)c1ccc(CCNC(=O)COC(=O)C2CCC2)cc1 |  | inactive: -4.18%
Cc1ccc(S(=O)(=O)NCc2ccccc2NS(=O)(=O)c2ccc(C)cc2)cc1 | inconclusive [inhibitor, partial curve] | 
C=CC[C@@H](CC(=O)N[C@H](CO)Cc1ccccc1)C(=O)N[C@@H](COC(=O)[C@H](CC=C)CC(=O)OC(C)(C)C)Cc1ccccc1 | inconclusive [inhibitor, partial curve, poor fit] | 
CCC(O)c1cnc(OCc2ccccc2)nc1OCc1ccccc1 (centres undefined) | active: 10 µM | 
CCN(C(=O)COC(=O)c1ccccc1NCc1ccco1)c1c(N)n(Cc2ccccc2)c(=O)[nH]c1=O | inconclusive [inhibitor, full curve, poor fit] | 
O=C(NC1CCCCC1)c1ccc2ccccc2c1 |  | inactive: -3.29%
COc1cccc(C(c2nnnn2Cc2ccccc2)N2CCN(C(=O)c3ccco3)CC2)c1OC (centres undefined) | inconclusive [inhibitor, partial curve, poor fit] | 
COc1cc2c(cc1NC(=S)Nc1cccc(C(F)(F)F)c1)oc1ccccc12 | inconclusive [inhibitor, partial curve, poor fit] | 
CCOC(=O)C1CCN(c2c(Nc3cc(C)cc(C)c3)c(=O)c2=O)CC1 | inconclusive [inhibitor, partial curve, poor fit] | 

SMILES | Potency | activity change, negative = inhibition
COc1cccc(-c2nc(NCCN3CCOCC3)c3ccccc3n2)c1O | inconclusive [inhibitor, single point] | 
CCn1c(CSCc2ccc(C)cc2)n[nH]c1=S | inconclusive [inhibitor, partial curve, poor fit] | 
O=C(c1ccoc1)N1CCN(c2cc(-c3ccccc3)nc3cc(-c4ccccc4)nn23)CC1 | inconclusive [inhibitor, partial curve, poor fit] | 
Cc1cc(Cl)ccc1C(=O)C1CCCN(C(=O)c2ccc3c(c2)OCO3)C1 (centres undefined) | inconclusive [inhibitor, single point] | 
O=C(/C=C/c1ccc2c(c1)OCO2)N1CCOCC1 |  | inactive: 0.455%
COc1ccc(-c2csc(C(O)(c3ccccc3)C(F)(F)F)n2)cn1 (centres undefined) | inconclusive [inhibitor, single point] | 
O=C(c1ccc2c(c1)CCN2S(=O)(=O)c1ccccc1)N1CCN(c2cccc(Cl)c2)CC1 | inconclusive [inhibitor, single point] | 
Cc1ccc(CNC(=O)c2cnc(N3CCCCC3)c3ccccc23)cc1 | inconclusive [inhibitor, single point] | 
Cc1c(NC2=NC3(CCCCC3)Cc3ccccc32)c(=O)n(-c2ccccc2)n1C |  | inactive: -30.8%
COc1ccc(Nc2nc(NCC3CCCO3)c3ccccc3n2)c(OC)c1 (centres undefined) | inconclusive [inhibitor, partial curve, poor fit] | 
O=C(Nc1ccccc1N1CCN(C(=O)c2ccccc2)CC1)c1cc(Br)ccc1Cl | inconclusive [inhibitor, single point] | 
O=C(NCCN1CCOCC1)c1ccc(/C=C2\Sc3ccccc3N(Cc3ccccc3F)C2=O)cc1 | inconclusive [inhibitor, single point] | 
CCc1ccc(-c2cc(C(=O)Nn3cnnc3)c3ccccc3n2)cc1 | inconclusive [inhibitor, full curve, poor fit] | 
Cc1cccc(Nc2c(-c3cccs3)nc3nc(C)cc(C)n23)c1 | inconclusive [inhibitor, single point] | 
CCN1N=C(c2ccccc2)Cn2c1nc1ccccc12 | inconclusive [inhibitor, partial curve, poor fit] | 
Cc1noc(C)c1COc1ccc(C(=O)NNC(=O)c2ccccc2)cc1 | inconclusive [inhibitor, full curve, poor fit] | 
CC(=O)NNC(=S)NC(=O)C(c1ccccc1)c1ccccc1 |  | inactive: -25.3%
CN(c1cccc(NC(=O)CN2C(=O)c3ccccc3S2(=O)=O)c1)S(C)(=O)=O | inconclusive [inhibitor, single point] | 
CCc1cc(C(=O)N/N=C/c2c(C)[nH]c3ccccc23)cs1 | inconclusive [inhibitor, single point] | 
CC1CCC(N(C)C(=O)CN2C(=O)NC(c3ccccc3)(c3ccccc3)C2=O)CC1 (centres undefined) | active: 10 µM | 
